From the supplement of paper PMC6135742
Where a name gives a salt, the structure may show the parent alone. ± gives the standard deviation of the averaged measurements. Whole data set: some 2,600 compounds, median “total cell number (DAPI+ nuclei) relative to DMSO vehicle control” near -1.4, cut for the lowest 2% near -23. This is one part of the list.

Tested on: jimpy (Plp1 jimpy) mouse iPSC-derived oligodendrocyte progenitor cells
Experiment: total cell number (DAPI+ nuclei) relative to DMSO vehicle control (SDs above negative control mean); higher = more surviving cells
Details: 10 µM; 3 days

| SMILES | total cell number |
| --- | --- |
| C/C=C(/C)C(=O)O[C@H]1C(C)=C2[C@H]([C@@H]1OC(=O)CCCCCCC)[C@@](C)(OC(C)=O)C[C@H](OC(=O)CCC)[C@@]1(O)[C@H]2OC(=O)[C@@]1(C)O [Thapsigargin] | -10.1 |
| CCCN(CCC)C1CCc2cccc(O)c2C1 (racemic) [(±)-8-Hydroxy-DPAT hydrobromide] | -1.03 |
| C[C@]12CC[C@@H](O)C[C@@H]1CC[C@@H]1[C@@H]2CC[C@]2(C)[C@@H](C(=O)CO)CC[C@@H]12 [3-alpha,21-Dihydroxy-5-alpha-pregnan-20-one] | -1.1 |
| c1ccc2c(c1)OCC(C1=NCCN1)O2 (stereo unspecified) [Idazoxan hydrochloride] | -1.38 |
| COc1ccc(CC2NCCc3cc(OC)c(OC)cc32)cc1OC (stereo unspecified) [Tetrahydropapaverine HCl] | 0.54 |
| CC[C@@H](CO)NC(=O)[C@@H]1C=C2c3cccc4c3c(cn4C)C[C@H]2N(C)C1 [Methysergide maleate] | -0.816 |
| CC(C)C1CNC(C(=O)O)C1CC(=O)O (stereo unspecified) [Dihydrokainic acid] | -0.564 |
| COc1cc2c(c(OC)c1OC)-c1ccc(OC)c(=O)cc1[C@@H](NC(C)=O)CC2 [Colchicine] | -2.58 |
| Cc1cc([C@@H]2CCCN2C)on1 [ABT-418 hydrochloride] | -4.48 |
| C[C@]12CC[C@H](O)CC1=CC[C@@H]1[C@@H]2CC[C@]2(C)C(=O)CC[C@@H]12 [Dehydroepiandrosterone (DHEA)] | 0.833 |
| CC(N)C(O)c1ccc(O)c(O)c1 (single isomer, unassigned; (-)) [(-)-alpha-Methylnorepinephrine] | -0.161 |
| O=C(O)CC[N+](=O)[O-] [3-Nitropropionic acid] | -2.13 |
| OCc1cnc[nH]1 [4-Imidazolemethanol hydrochloride] | -0.846 |
| O=[N+]([O-])c1ncc[nH]1 [Azomycin] | 2.47 |
| CN1C[C@H](CNC(=O)OCc2ccccc2)C[C@@H]2c3cccc4c3c(cn4C)C[C@H]21 [Metergoline] | -7.7 |
| CCCN1CCC[C@@H]2Cc3n[nH]cc3C[C@H]21 [(-)-Quinpirole hydrochloride] | -0.638 |
| CC(C)c1cccc(C(C)C)c1O [Propofol] | -1.47 |
| CC(O)(CS(=O)(=O)c1ccc(F)cc1)C(=O)Nc1ccc(C#N)c(C(F)(F)F)c1 (stereo unspecified) [Bicalutamide] | 1.82 |
| CC(O)(CS(=O)(=O)c1ccc(F)cc1)C(=O)Nc1ccc(C#N)c(C(F)(F)F)c1 (stereo unspecified) [Bicalutamide (CDX)] | -0.733 |
| CN1CCc2cc3c(cc2C1C1OC(=O)c2c1ccc1c2OCO1)OCO3 (single isomer, unassigned; (+)) [(+)-Bicuculline] | 0.293 |
| CCN1CCN(C(=O)Cc2ccc(Nc3ncc(F)c(Nc4ccc(C(=O)Nc5ccccc5Cl)cc4)n3)cc2)CC1 [Aurora A Inhibitor I] | 1.44 |
| CCOC(=O)c1cncn1[C@H](C)c1ccccc1 [Etomidate] | -0.556 |
| CCC1(c2ccc(N)cc2)CCC(=O)NC1=O (racemic) [(±)-p-Aminoglutethimide] | -1.52 |

| SMILES | total cell number |
| --- | --- |
| Cc1ncsc1CCCl [Chlormethiazole hydrochloride] | -1.01 |
| CCCN(CCC)C1CCc2ccc(O)cc2C1 (racemic) [(±)-7-Hydroxy-DPAT hydrobromide] | -1.31 |
| COC[C@H]1OC(=O)c2coc3c2[C@@]1(C)C1=C(C3=O)C2CCC(=O)[C@@]2(C)C[C@H]1OC(C)=O (stereo partly specified) [Wortmannin from Penicillium funiculosum] | -3.09 |
| O=C(CCCN1CCC2(CC1)C(=O)NCN2c1ccccc1)c1ccc(F)cc1 [Spiperone hydrochloride] | -3.6 |
| CC(C)Oc1cccnc1N(C)C1CCN(Cc2ccccc2)CC1 | 7.57 |
| NCC1(CC(=O)O)CCCCC1 [Gabapentin] | 0.162 |
| O=c1cccc2n1C[C@@H]1CNC[C@H]2C1 [Cytisine] | -1.22 |
| COc1ccc2c(c1O)-c1cccc3c1[C@@H](C2)N(C)CC3 [R(-)-Apocodeine hydrochloride] | -2.28 |
| C[N+]1(C)[C@@H]2CC(OC(=O)[C@H](CO)c3ccccc3)C[C@H]1[C@@H]1O[C@@H]12 (single isomer, unassigned; (-)) [(-)-Scopolamine methyl nitrate] | -1.19 |
| NC(Cc1cc(O)c(O)cc1O)C(=O)O (racemic) [6-Hydroxy-DL-DOPA] | -2.36 |
| O=c1[nH]oc2c1CCNC2 [THIP hydrochloride] | -1.74 |
| CC(C)(C)c1cc(C=C(C#N)C#N)cc(C(C)(C)C)c1O [Tyrphostin 9] | -11.8 |
| Cc1cc(C(C#N)c2ccc(Cl)cc2)c(Cl)cc1NC(=O)c1cc(I)cc(I)c1O (stereo unspecified) [Closantel] | 0.325 |
| Cc1cc(C(C#N)c2ccc(Cl)cc2)c(Cl)cc1NC(=O)c1cc(I)cc(I)c1O (stereo unspecified) [Closantel Sodium] | -1.35 |
| O=C(O)c1nn(Cc2ccc(Cl)cc2Cl)c2ccccc12 [Lonidamine] | -0.86 ± 1.1 |
| CCOC(=O)c1ncn2c1[C@@H]1CCCN1C(=O)c1cc(OC)ccc1-2 | -0.836 |
| CCC1(C2=NCCN2)Cc2ccccc2O1 (stereo unspecified) [Efaroxan hydrochloride] | -1.57 |
| CC[C@@H](CO)NC(=O)[C@@H]1C=C2c3cccc4[nH]cc(c34)C[C@H]2N(C)C1 [Methylergonovine maleate] | -1.22 |
| Cc1o[nH]c(=O)c1CC(N)C(=O)O (racemic) [(±)-AMPA hydrobromide] | 1.67 |
| CC(=O)[C@H]1CC[C@H]2[C@@H]3CC[C@H]4C[C@H](O)CC[C@]4(C)[C@H]3CC[C@]12C [5alpha-Pregnan-3alpha-ol-20-one] | -0.448 |
| CC(C)(C)c1cc(C=C(C#N)C#N)cc(Br)c1O | -0.125 |
| CN1CC[C@@]2(C)c3cc(O)ccc3N(C)C12 (single isomer, unassigned; (-)) [(-)-Eseroline fumarate] | -3.73 |
| CC(C)[C@]12O[C@H]1[C@@H]1O[C@]13[C@]1(O[C@H]1C[C@H]1C4=C(CC[C@@]13C)C(=O)OC4)[C@@H]2O [Triptolide (PG490)] | -11 |
